The % Inhibition is the drop in the measured response relative to a control, in per cent.

From ChEMBL document CHEMBL4888484, “Replenishing the malaria drug discovery pipeline: Screening and hit evaluation of the MMV Hit Generation Library 1 (HGL1) against asexual blood stage Plasmodium falciparum ,using a nano luciferase reporter read-out” (2022) come the findings set out here.

About 540 (0.36%) of roughly 150,000 compounds showed an effect of 50% or more. The list shows a part of the results.

This experiment concerns Plasmodium falciparum. Briefly: Primary screen in NF54 nanoGlo assay, in single point, at 2uM, 72h; a lower Z score goes with more inhibition. Format: functional, Erythrocyte. As to conditions: timepoint 72 hour.
On to `O=C(Cc1ccc(C2CCC2)cc1)NCc1nnc2n1CCNC2=O`, for which the “% Inhibition” value was -7% and the Z score stood at 1.44.

Turning to `Cc1noc(C)c1CN1C[C@@H]2Oc3cc(F)ccc3C(=O)N(C)[C@@H]2C1`, the “% Inhibition” value came out at 91% and the Z score is -10.61.

For the compound `c1ccc(-c2ncn(CCc3c[nH]cn3)c2-c2cccc3nonc23)cc1`, the “% Inhibition” value amounted to 7% and the Z score is recorded as -1.19.

On to `COc1cc(C)cc(OC)c1-c1n[nH]c(C(=O)N(C)C)n1`, for which the “% Inhibition” value is listed as -7% and the Z score came out at 0.95.

For the compound `CCO[C@H]1CCCN(c2cc(Br)cc(F)c2C(N)=O)C1`, the “% Inhibition” value is on record as 17% and the Z score was -2.42.

Turning to `CC(C)Oc1ccc([C@@H](CCNCc2ccco2)C2CCCCC2)cc1`, the “% Inhibition” value is recorded as -5% and the Z score is listed as 0.78.

`C[C@H](O)C1CCN(S(=O)(=O)CCC2CC2)CC1`: the “% Inhibition” value is -1% and the Z score was 0.06.

With `COc1cccc(N2CCN(C(=O)c3cc(-c4ccccn4)no3)CC2)c1`, the “% Inhibition” value worked out at 2% and the Z score is listed as -0.18.

For the compound `CC(=O)N[C@H]1C[C@H](c2cc(NCc3ccc4c(c3)OCO4)ncn2)C1`, the “% Inhibition” value was -11% and the Z score is recorded as 1.88.

For the compound `O=C(COc1ccc(Cl)cc1)N1CC[C@@H](c2cccs2)S(=O)(=O)CC1`, the “% Inhibition” value is -8% and the Z score is given as 1.43.

With `O=C(C(=Cc1ccccc1)c1ccc(Cl)cc1)N1CCN(Cc2ccccc2)CC1`, the “% Inhibition” value is on record as -9% and the Z score is given as 1.21.

As for `CC[C@H](C)CN(C)C(=O)NCCc1nccn1C(F)F`, the “% Inhibition” value is -2% and the Z score was determined as 0.25.

With `COc1ccc(-c2noc(CN3CCC(C(=O)N(C)c4cc(C)ccc4OC)CC3)n2)cc1OC`, the “% Inhibition” value is listed as 3% and the Z score is on record as -0.45.

Consider `CCO[C@H]1CN(C(=O)CCn2nc(C)c(C(C)=O)c2C)C[C@@H]1O`, for which the “% Inhibition” value is on record as -8% and the Z score was found to be 1.32.

With `Cc1cc(C(=O)N2CCCN(S(C)(=O)=O)[C@H]3CCC[C@H]3C(=O)NCC2)no1`, the “% Inhibition” value is -8% and the Z score was 1.19.

Turning to `Cc1nnc(Cc2ccc(-n3ccnc3-c3ccnc4ccccc34)cc2)[nH]1`, the “% Inhibition” value is recorded as -5% and the Z score is on record as 0.94.

Turning to `O=C(COC[C@H]1CCCCO1)NCCc1cn[nH]c1`, the “% Inhibition” value was determined as 3% and the Z score was -0.46.

Take `Cc1cccc2c1N(C1CC1)CCN2C(=O)c1ccc(CS(C)(=O)=O)o1`: the “% Inhibition” value is given as -6% and the Z score is 0.68.

Turning to `CCOC(=O)c1ccccc1S(=O)(=O)Oc1cc(Cl)ccc1-c1nc2ncccc2o1`, the “% Inhibition” value was -24% and the Z score is 2.44.

In the case of `CC(C)(C)c1cc(CN2CC[C@](C)(O)[C@@H](O)C2)n[nH]1`, the “% Inhibition” value is on record as -11% and the Z score came out at 2.11.

With `CC[C@H](OC1CCCC1)C(=O)Nc1cccnc1C`, the “% Inhibition” value is on record as -14% and the Z score is on record as 1.23.

As for `CCCNC(=O)[C@H](C)NC(=O)Nc1ccc(F)cc1`, the “% Inhibition” value is recorded as -3% and the Z score turned out to be 0.44.

As for `CC(C)(C)OC(=O)N1CCC2(CCCN(C(=O)c3cnc(-c4ccoc4)s3)C2)CC1`, the “% Inhibition” value is reported as -17% and the Z score amounted to 1.61.

`CN(C)CC[C@H]1CCCCN1C(=O)c1cnc(C2CC2)nc1`: the “% Inhibition” value is listed as -9% and the Z score is listed as 1.15.

As for `CC(C)C(=O)N1CCC(NC(=O)C(C#N)c2nc3ccccc3s2)C1` (centres undefined), the “% Inhibition” value is reported as 3% and the Z score is on record as -0.47.

For `COc1ccccc1C(=O)Nc1ccc(S(=O)(=O)N(Cc2ccccc2)c2ccccc2)cc1`, the “% Inhibition” value is given as 19% and the Z score is reported as -2.18.

Take `c1ccc2c(c1)NC1(CCCC1)n1nnnc1-2`: the “% Inhibition” value is reported as -3% and the Z score worked out at 0.49.

For `O=C(OC1CCOCC1)N1CC[C@@H](c2ccccc2F)S(=O)(=O)CC1`, the “% Inhibition” value is 6% and the Z score was -0.99.

On to `CCCC1(NC2CCN(c3ccc(N4CCCC4=O)cc3)CC2)CC1`, for which the “% Inhibition” value is recorded as -8% and the Z score was 1.15.

Turning to `C[C@@H](c1cnn(C)c1)n1cnc2ccc(Cl)cc2c1=O`, the “% Inhibition” value is recorded as -10% and the Z score came to 1.79.

Take `CCn1cc(-c2ccc(OC)cc2)cc1C(=O)N1CCC(C)CC1`: the “% Inhibition” value is given as 1% and the Z score is on record as -0.17.

On to `CCCc1nc(NCCCOC2CCCC2)no1`, for which the “% Inhibition” value is recorded as -18% and the Z score was determined as 1.57.

Regarding `N#Cc1cccc(NC2CN(C(=O)[C@H]3CCS(=O)(=O)C3)C2)c1`, the “% Inhibition” value was -1% and the Z score amounted to 0.16.

On to `Cc1nc(C(=O)NCCn2c(=O)[nH]c3ccsc3c2=O)cs1`, for which the “% Inhibition” value is -9% and the Z score worked out at 1.75.

On to `CC[C@@]1(C)COCCN1C(=O)Cn1ccc(=O)[nH]c1=O`, for which the “% Inhibition” value is recorded as 34% and the Z score is listed as -3.81.

As to `C#CC[C@H]1CCCN(c2nnnn2C[C@H]2C[C@@H](OC)C2)C1`, the “% Inhibition” value is given as -10% and the Z score worked out at 1.26.

On to `Cn1cnn(CCC(=O)N(CC2CC2)c2ccccc2)c1=O`, for which the “% Inhibition” value is -11% and the Z score was determined as 1.47.

In the case of `Cc1ccc(NC(=O)CC2=Nc3ccccc3S(=O)(=O)N2)cc1C`, the “% Inhibition” value is -5% and the Z score is 0.92.

In the case of `CCOC(=O)C1=C(c2ccccc2)S/C(=C2/C(=S)C(C)(C)Nc3cc(C)c(C)cc32)S1`, the “% Inhibition” value is -17% and the Z score came out at 2.22.

Regarding `CCCCc1nc(-c2c(-c3ccccc3)ncn2CC[C@H]2CCCN2C)c[nH]1`, the “% Inhibition” value was found to be 1% and the Z score is on record as -0.18.

For the compound `COc1ccc(CCNCc2cc(Br)ccc2OCc2ccccn2)cc1OC`, the “% Inhibition” value is -5% and the Z score is 0.66.

Regarding `CCc1ccc(-c2nn(C)c(=O)c3c2CCCC3)cc1S(=O)(=O)N1CCN(c2ccccc2)CC1`, the “% Inhibition” value is given as -12% and the Z score was 1.9.
